Laboratory results from PMC6471242, “Dereplication by High-Performance Liquid Chromatography (HPLC) with Quadrupole-Time-of-Flight Mass Spectroscopy (qTOF-MS) and Antiviral Activities of Phlorotannins from Ecklonia cava” (Marine Drugs, 2019).

These molecules were tested on H1N1 A/PR/8/34 virus (assay: Cytopathic effect (CPE) inhibition assay in MDCK cells, H1N1). Details: Influenza A virus, 72 h, three days of incubation, mean ± SD, read-out: EC50 (effective concentration).
Format: cell-based

SMILES | EC50 [µM]
Oc1cc(O)c2c(c1)Oc1c(O)cc(O)cc1O2 [Compound 13, Dibenzo[1,4]dioxine-2,4,7,9-tetraol] | 23.9
Oc1cc(O)cc(Oc2c(O)cc(O)c3c2Oc2c(O)cc(Oc4c(O)cc(Oc5c(O)cc(O)c6c5Oc5c(O)cc(O)cc5O6)cc4O)cc2O3)c1 [Compound 11, Dieckol] | 17.3
Oc1cc(O)c2oc3cc(O)c4oc5cc(O)cc(O)c5oc4c3oc2c1 [Compound 14, Dioxinodehydroeckol] | 23.4
NC(=O)c1ncn([C@@H]2O[C@H](CO)[C@@H](O)[C@H]2O)n1 [Ribavirin, ribavirin, reference compound] | 4.29
Oc1cc(O)cc(Oc2c(O)cc(O)c3c2Oc2c(O)cc4oc5c(Oc6cc(O)cc(O)c6)c(O)cc(O)c5c4c2O3)c1 [Compound 12, Phlorofucofuroeckol A] | 13.5 ± 1.93
